Assay results taken from PubChem BioAssay AID588579 (National Center for Advancing Translational Sciences (NCATS), 2011).
Where “and” joins values, the source holds several entries; their conditions need not be identical. Equal values may be shown once. Among all 400,000 compounds or so, about 2,200 (0.55%) were called active. About 1% were inconclusive and are not listed. The call rests on the fitted dose curve; in most records, active means well fitted inhibition curve with a large enough effect; inconclusive means small, poorly fitted or top-dose-only effect, or another doubt; inactive means no such curve, though single readings can be large or run the other way. The entries are a selection whose mix differs from that of the whole data set. More than one record can exist for a structure, and the calls need not agree.

Biological target: DNA polymerase kappa (Homo sapiens) (UniProt Q9UBT6)
UniProt Q9UBT6, sequence (Q9UBT6 whole entry, looked up): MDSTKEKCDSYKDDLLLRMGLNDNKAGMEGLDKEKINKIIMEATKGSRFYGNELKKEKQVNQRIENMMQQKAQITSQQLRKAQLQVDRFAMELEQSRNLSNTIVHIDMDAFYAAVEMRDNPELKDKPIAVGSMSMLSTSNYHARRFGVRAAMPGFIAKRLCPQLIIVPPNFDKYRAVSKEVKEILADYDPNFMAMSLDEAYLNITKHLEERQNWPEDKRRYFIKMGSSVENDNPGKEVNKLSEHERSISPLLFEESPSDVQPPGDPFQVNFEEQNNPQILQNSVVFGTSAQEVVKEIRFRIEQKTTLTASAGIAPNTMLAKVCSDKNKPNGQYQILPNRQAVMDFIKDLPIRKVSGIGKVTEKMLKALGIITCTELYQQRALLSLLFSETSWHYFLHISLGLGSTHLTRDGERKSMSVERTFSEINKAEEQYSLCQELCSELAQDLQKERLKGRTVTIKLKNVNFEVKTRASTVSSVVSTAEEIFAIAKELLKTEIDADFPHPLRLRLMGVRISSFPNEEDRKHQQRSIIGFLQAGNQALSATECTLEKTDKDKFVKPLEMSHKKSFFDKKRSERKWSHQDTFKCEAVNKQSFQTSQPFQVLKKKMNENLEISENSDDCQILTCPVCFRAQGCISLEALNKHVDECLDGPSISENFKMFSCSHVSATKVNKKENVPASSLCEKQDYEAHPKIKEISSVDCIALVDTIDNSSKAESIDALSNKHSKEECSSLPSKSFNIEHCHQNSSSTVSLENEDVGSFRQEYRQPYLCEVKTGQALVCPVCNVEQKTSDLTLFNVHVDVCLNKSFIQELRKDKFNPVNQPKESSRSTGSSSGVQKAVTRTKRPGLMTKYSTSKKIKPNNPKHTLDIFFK
Test: qHTS for Inhibitors of Polymerase Kappa
Conditions: purified Pol kappa, fluorescent DNA synthesis assay, 10 min; activity, negative = inhibition: at the top concentration
Summary of the method: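 Kinetic fluorescence readout at 0 and 10 min followed reaction start with substrate at 50 nM final. Beforehand, enzyme (10 nM Pol kappa) stood 15 min with compound at room temperature; buffer-only wells were negative controls.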
On the % scale 0 is the no-effect control and ±100 the full control effect; potency means the concentration at half of the fitted maximal effect.

| SMILES | Potency | activity, negative = inhibition |
| --- | --- | --- |
| CC[C@@H](CO)NC(=O)[C@@H]1C=C2c3cccc4c3c(cn4C)C[C@H]2N(C)C1 | inactive |  |
| Cc1ccc(N2C(=O)NC(=O)/C(=C\C=C\c3ccco3)C2=O)cc1 |  | inactive: -99.7% [at 107 µM] |
| CC12NC(Cc3ccccc31)c1ccccc12 (stereo not drawn) | inactive |  |
| O=C1NC(=S)N(c2ccc(F)cc2)C(=O)/C1=C\c1ccoc1 | active: 1 µM |  |
| Clc1ccc(CO[C@@H](Cn2ccnc2)c2ccc(Cl)cc2Cl)cc1 |  | inactive: -7.34% [at 12 µM] |
| C[C@]12CC[C@H]3[C@@H](CCC4=CC(=O)CC[C@@]43C)[C@@H]1CC[C@@H]2O | inactive |  |
| CC(C)[C@H]1C(=O)O[C@@H]2CCN3CC=C(COC(=O)[C@](C)(O)[C@]1(C)O)[C@H]23 |  | inactive: 18.4% [at 107 µM] |
| CC(C)[C@H]1C(=O)N2CCC[C@H]2[C@]2(O)O[C@](NC(=O)[C@@H]3C=C4c5cccc6[nH]cc(c56)C[C@H]4N(C)C3)(C(C)C)C(=O)N12 |  | inactive: -34.9% [at 107 µM] |
| N#CC(C#N)=Cc1ccc(O)c(O)c1 | inactive |  |
| CC1COC2=C1C(=O)C(=O)c1c2ccc2c1CCCC2(C)C (stereo not drawn) | active: 20 µM and active: 28.2 µM |  |
| CCCCC/C=C\C/C=C\C/C=C\C/C=C\CCCC(=O)N[C@H](C)CO |  | inactive: -3.7% [at 19.4 µM] |
| CCC1OC2(C)C(O)C(/C=C/C=C/C=C/c3oc(=O)cc(OC)c3C)OC1(C)C2OC(C)=O (stereo not drawn) |  | inactive: 14.8% |
| O=C(O)CO |  | inactive: 20.1% |
| O[C@H]1[C@H](O)[C@@H](O)CN2CC[C@H](O)[C@H]12 | inactive |  |
| CN1C[C@H](C(=O)N[C@]2(C)O[C@@]3(O)[C@@H]4CCCN4C(=O)[C@H](Cc4ccccc4)N3C2=O)C=C2c3cccc4[nH]cc(c34)C[C@H]21 |  | inactive: -19.2% |
| Cc1cc(/C=C2/C(=O)NC(=O)N(Cc3ccco3)C2=O)c(C)n1-c1ccc(C(=O)O)cc1 | active: 50.1 µM |  |
| CC(C)C[C@H]1C(=O)N2CCC[C@@H]2[C@]2(O)O[C@](NC(=O)[C@H]3C=C4c5cccc6[nH]c(Br)c(c56)C[C@H]4N(C)C3)(C(C)C)C(=O)N12 |  | inactive: -2.88% [at 12 µM] |
| C=CCN1C(=O)/C(=C/c2ccc(Br)s2)C(=O)NC1=S | active: 79.4 µM |  |
| O[C@@H]1[C@H](O)[C@H]2[C@@H](O)CCN2C[C@@H]1O |  | inactive: -6.2% [at 19.4 µM] |
| C=C(C)[C@H]1CN[C@H](C(=O)O)[C@@H]1CC(=O)O |  | inactive: -3.34% [at 19.4 µM] |
| C[C@H](CCC(=O)O)[C@H]1CC[C@@H]2[C@@H]3[C@@H](O)C[C@H]4C[C@@H](O)CC[C@@]4(C)[C@H]3CC[C@@]21C |  | inactive: -4.26% [at 19.4 µM] |
| CC(C)C[C@H]1C(=O)N2CCC[C@@H]2[C@]2(O)O[C@](NC(=O)[C@@H]3C=C4c5cccc6[nH]c(Br)c(c56)C[C@H]4N(C)C3)(C(C)C)C(=O)N12 |  | inactive: -11.9% [at 19.4 µM] |
| CC(C)C1C(=O)O[C@@H]2CCN3CC=C(COC(=O)[C@](C)(O)[C@]1(C)O)[C@H]23 (stereo partly drawn) |  | inactive: 17.8% |
| CCCCCCCCCCCCCC(=O)OC1C(C)[C@@]2(O)C(C=C(CO)C[C@]3(O)C(=O)C(C)=C[C@H]23)[C@@H]2C(C)(C)[C@]12OC(C)=O (stereo partly drawn) |  | inactive: -13.1% |
| CC(C)=CCN1CC[C@@]2(C)c3cc(O)ccc3C[C@@H]1C2C (stereo partly drawn) |  | inactive: -19.9% [at 107 µM] |
| COC(C)(C)CCCC(C)C/C=C/C(C)=C/C(=O)OC(C)C (stereo not drawn) | inactive |  |
| N[C@@H](Cn1oc(=O)[nH]c1=O)C(=O)O | inactive |  |

| SMILES | Potency | activity, negative = inhibition |
| --- | --- | --- |
| CCOC(=O)C1=C(N)Oc2c(c(=O)oc3ccccc23)C12C(=O)N(C)c1ccccc12 (stereo not drawn) |  | inactive: -22.6% [at 107 µM] |
| C[C@H](CCC(=O)O)[C@H]1CC[C@H]2[C@@H]3[C@@H](O)C[C@@H]4C[C@H](O)CC[C@]4(C)[C@H]3CC[C@]12C |  | inactive: -14.4% [at 107 µM] |
| O=C(O)COc1nc(Cl)c(Cl)cc1Cl |  | inactive: 12.3% |
| CN1C[C@H](CNC(=O)OCc2ccccc2)C[C@H]2c3cccc4c3c(cn4C)C[C@@H]21 | inactive |  |
| CCCCC/C=C\C/C=C\C/C=C\C/C=C\CCCC(=O)NCc1ccc(O)c(OC)c1 |  | inactive: -16.7% [at 19.4 µM] |
| CN(C)c1ccc(/C=C/c2cc[n+](C)c3ccccc23)cc1 | inactive |  |
| O=C(Nc1cc[c]([Sb](=[O])([OH])[OH])cc1)c1ccccc1 | active: 6.31 µM |  |
| CN(N=O)c1ccc(O)c(O)c1 | active: 2.38 µM |  |
| CNCCc1ccc(O)c(O)c1 |  | inactive: 2.77% [at 107 µM] |
| COC[C@H]1OC(=O)c2coc3c2[C@@]1(C)C1=C(C3=O)[C@@H]2CCC(=O)[C@@]2(C)C[C@H]1OC(C)=O | inactive |  |
| CC1=NCCc2c1[nH]c1cc(O)ccc21 | inactive |  |
| O=[N+]([O-])c1cc(O)c(O)c([N+](=O)[O-])c1 | active: 3.16 µM and active: 15.8 µM |  |
| O=C(CO)C(O)C(O)C(O)CO (stereo not drawn) | inactive |  |
| COc1ccc(CN2C(=O)NC(=O)/C(=C/c3ccc([N+](=O)[O-])s3)C2=O)cc1 | active: 22.4 µM |  |
| NCCc1ccc(S(=O)(=O)F)cc1 |  | inactive: 8.34% |
| CC(C)N(CCC(C(N)=O)(c1ccccc1)c1ccccn1)C(C)C (stereo not drawn) | inactive |  |
| Cc1cccc(N2CCc3c2nc2ccccc2c3N)c1 |  | inactive: 4.32% [at 107 µM] |
| CC1=C(O)C(=O)C=C2C1=CC=C1C2(C)CCC2(C)C3CC(C)(C(=O)O)CCC3(C)CCC12C (stereo not drawn) | active: 31.6 µM |  |
| CN(C)C1C(=O)C(C(N)=O)=C(O)[C@@]2(O)C(=O)C3=C(O)c4c(O)cccc4[C@@](C)(O)C3C[C@@H]12 (stereo partly drawn) |  | inactive: -12% [at 19.4 µM] |
| CN1Cc2ccccc2[C@@H]2c3cccc4[nH]cc(c34)C[C@H]21 |  | inactive: -11.3% [at 19.4 µM] |
| CC12CCC3c4ccc(OC(=O)N(CCCl)CCCl)cc4CCC3C1CCC2O (stereo not drawn) |  | inactive: -4.9% [at 107 µM] |
| Oc1ccc2c3c1O[C@H]1c4oc5ccccc5c4C[C@@]4(O)C(C2)N(CC2CC2)CC[C@]314 |  | inactive: -0.17% [at 19.4 µM] |
| CC(N)C(=O)NCC(=O)NC1CSSCC(C(=O)O)NC(=O)C(CO)NC(=O)C(C(C)O)NC(=O)C(Cc2ccccc2)NC(=O)C(C(C)O)NC(=O)C(CCCCN)NC(=O)C(Cc2c[nH]c3ccccc23)NC(=O)C(Cc2ccccc2)NC(=O)C(Cc2ccccc2)NC(=O)C(CC(N)=O)NC(=O)C(CCCCN)NC1=O (stereo not drawn) |  | inactive: 1.35% [at 19.4 µM] |
| CCCCC/C=C\C/C=C\C/C=C\C/C=C\CCCC(=O)Nc1ccc(O)cc1C |  | inactive: -17.7% [at 12 µM] |
| C=C(C)[C@H]1CN[C@H](C(=O)O)[C@H]1CC(=O)O | inactive |  |
| CN(C)[C@@H]1C(=O)C(C(N)=O)=C(O)[C@]2(O)C(=O)C3=C(O)c4c(O)ccc(Cl)c4[C@](C)(O)[C@H]3C[C@@H]12 |  | inactive: -7.47% [at 12 µM] |
